Test results published in the supplement of paper PMC11417369.
The other results are listed elsewhere or left out.

These sequences were tested on PfSIP2 AP2 domain 1 (GST-tagged) (assay: gcPBM binding intensity (ln(normalized median fluorescence intensity)); higher = stronger DNA binding).
Outline: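 After 1 h on an Agilent 4 × 180k array of primer-extended double-stranded 36-bp intergenic genomic probes and negative controls, bound GST-tagged P. falciparum DNA-binding domains were detected with Alexa488 anti-GST antibody and scanned at 488 nm. The domains had been expressed in E. coli, and binding took place in 1× PBS with 1% milk, 0.2 mg/ml BSA, 0.5% salmon testes DNA and 0.03% Triton X-100. Binding intensity is the highest Masliner-normalised natural-log median intensity across replicate spots of either probe orientation.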

Point of comparison: “GAAATTAAATGACATACACACTATATTATAGATTTT [CACACA_site7468]”, “gcPBM binding intensity (ln)” value 6.73. Against it:
- AATATAAATTTATATTGTACATATTTTATTATATGT [XGTACX_site905] — higher, 7.2
- GTGTATCAATATGTAGGTACGTAAATATAGATAATA [XGTACX_site5526] — higher, 7.1
- TAATATAATATATAGGTGCAATATTAACAAAAATTT — higher, 9.61
- ATTAATATGAATAAATGTACAAATGAATGATTACAT [XGTACX_site6044] — higher, 6.78
- ATAATGTGTTAGGCGTGTACACAATTGTATGGTTTA [XGTACX_site2377] — higher, 7.42
- AAATAAAATCATAATGTGCGCATATAAATTTGTAGG [GTGCAC_site9662] — higher, 7.63
- ATATATATATATGAAAGTACACATCTATTTTTTCTT [XGTACX_site6059] — higher, 9.32
- AAGGTAGATATATTTAGTACGTAATTTTTTTTTTTT [XGTACX_site7288] — higher, 6.87
- GTAAAAAAAGAGCACACACACAAAAACACCCACAAA [CACACA_site1292] — higher, 7.34
- TTTATTCCCGCATATAGTACATATACCATTTAATGT [XGTACX_site7011] — higher, 7.16
- AATATTTAAGTACTGGTGCGTGTATATAATGATTAA [GTGCAC_site9633] — higher, 8.44
- ATAAATAAAATATGCACACAAATATAGGAAACAACA [CACACA_site2561] — higher, 8.26
- AAACTTGTAAGAAACACACACACACGCATATAAATA [CACACA_site6518] — higher, 6.98
- CATAAATACACTGTAGCGCACACGGCCAAAAAAAAA [CACACA_site8537] — higher, 7.16
- ATATAATATGGTATTACACACTGTTATAAGTATGGC [CACACA_site2094] — higher, 6.93
- TTAAATAAAATTTATTGTACATAAAATTAAATATAG [XGTACX_site3039] — higher, 7.09
- CATAATTTACATAAAAGTACATATATATTAATGACG [XGTACX_site6247] — higher, 7.02
- AGAAGCATACATCAAGCACACACACCCACACCCACA [CACACA_site8014] — higher, 6.9
- TCCTTTTCTTAATTTAAAAAATATAAAAAAAACGAA [CACACA_negctrl_site1821] — higher, 7.19
- ACACGTTTATATAAAAAATTAAAATTTTTCTTATTT [CACACA_negctrl_site1523] — higher, 7.21
- ATAACAAAATAAAACACACACACAAATGTACAGATA [CACACA_site5358] — higher, 7.06
- ATTTTTGTGTTTACACGTACGTGTAAATTATTTTTC [XGTACX_site1869] — higher, 6.96
- TATTCATGTTTAAAAAGTACATATTATGGTAACATT [XGTACX_site4533] — higher, 7.06
- AAAAGGGATAAATGTGCGCACATGTTATATATATAT [GTGCAC_site9534] — higher, 9.41
- ACATATCTACACAGTGGTACTTCCATTAATATATAC [XGTACX_site3827] — higher, 7.24
- TCATAAATTAAACAAACACACACGTTCTTTTATTTA [CACACA_site713] — higher, 6.87
- ATTTATTCAAATGGTTGTACTACAAATAAACATTAT [XGTACX_site3378] — higher, 7.15
- AACAATGTTGTACATACACACACACTAATAAAAAAT [CACACA_site8758] — higher, 7.22
- AATACATACAGACACACACACACATATAAATAAATA [CACACA_site7642] — higher, 7.37
- GCTCATTGAAGTTATACACACCAAATATGTAAATAT [CACACA_site7217] — higher, 7.08
- TATAATATTAATGACTGTACTCATACGTATATTTAT [XGTACX_site5493] — higher, 7.03
- TTTAATTTATATTTTGTGCACATCTTATTATATATA [GTGCAC_site9630] — higher, 9.58
- AATTTTGTTTAGCACACACACATACATACATACATA [CACACA_site5707] — higher, 7.34
- CCCATTTTGACAAAAAGTACAAGTTCAGGTTTTATA [XGTACX_site1532] — higher, 6.93
- AAAAATTAAAATATTATAGTTGAAACTTTTATAAAT [TGCATGCA_negctrl_site454] — lower, 6.55
- TTTCTCTTCTAAACATGTACAAAAATACATACATAT [XGTACX_site1365] — higher, 7.39
- TATATTTATTCCTGTTGTACTTTATATTATTTTTTT [XGTACX_site1415] — higher, 7.17
- ATATATATATATATATGTACATACATACATAGAACT [XGTACX_site2214] — higher, 9.69
- TCCCATTTATTATGGTGTACAATTAATTAAACATAA [XGTACX_site750] — higher, 7.16
- ACATATTAATTATTATGACATACATATCAGTTATTA [TGCATGCA_negctrl_site126] — higher, 6.92
- TATATTATTTTATATTGTACATACCAAATATTATAT [XGTACX_site1693] — higher, 7.11
- CATGTGATAATGATTAGTACATAAACAAAAATATAT [XGTACX_site5866] — higher, 7.09
- AGAAAAATAAACAAATGTACAAATTATTACTATATA [XGTACX_site1087] — higher, 6.8
- TAAAATATAGAAAATTTTATTAAATATAAAAAAATA [CACACA_negctrl_site1441] — lower, 6.61
- ATTAAATAAAAAAACACACACATATATACATATATA [CACACA_site3445] — higher, 6.88
- CATAATAATAGAAACACACACACATAGACATATATA [CACACA_site1308] — higher, 7.05
- CATATATAACCTATAGCACACATATATAATATATAT [CACACA_site8544] — higher, 7.34
- TTATATAAACACCAACGTACGTTCATTTAACATAAC [XGTACX_site5250] — higher, 7.19
- TATATATATATATATTGTACATATGTGGTATAAATG [XGTACX_site6108] — higher, 9.24
- GCATATCTATTTTCACGTACACAAACATGTATATAT [XGTACX_site3722] — higher, 7.53
- ATATTACATATGTGCTGTACGCAATATATTATATCT [XGTACX_site1520] — higher, 7.04
- AAGAACTTTAATAAGTGTACATTTATTGGAAACATG [XGTACX_site2995] — higher, 7.08
- ATAATTACATAGATTGGTACACATTTTTGATTGTAT [XGTACX_site3802] — higher, 7
- TTAAAAATGTGTGTGCGTACATAATATTTCGAAAAA [XGTACX_site8197] — higher, 7.03
- GTACAAATGATTAATCCTTTACTTATATATATATAT [XGTACX_negctrl_site138] — higher, 9.37
- CATTTTTTTTTATAAATACACACGTACGGGTGCATA [CACACA_site1569] — higher, 10.9
- TTCTGGCAAAATAACACACACATATATTTTATATAC [CACACA_site3242] — higher, 7.92
- TTCTTAAAAAAAAATAAAATAAAAAAAAAAATAAAA [CACACA_negctrl_site99] — lower, 6.68
- GAACATTTACGCCCCACACACCTACCAACAAAAAAA [CACACA_site7746] — higher, 7.74
- TTTTTCATATGACACACACACAAAAATAATGTGGAA [CACACA_site7692] — higher, 6.99
- AAATGAACACGAAAGGAAAAAAAAATATATATATAT [CACACA_negctrl_site267] — higher, 9.21
- TCATTTTATTATTCTACACACTTATCTATAATTATA [CACACA_site34] — higher, 7.2
- ATTTGCAGTATTTCGGAACACACAAACATAAATATG [CACACA_site8726] — higher, 6.95
- TATAAAAAATTCTTCCTTATTTTATGATATATATAT [TGCATGCA_negctrl_site57] — higher, 8.4
- TATTCCTATAAAAAAACACACACATATAAATATATA [CACACA_site8727] — higher, 6.95
- AAATATATTTCACGCACACACACCCCAAATAAATTT [CACACA_site3820] — higher, 7.32
- ATATTTCAAAATGAAAGTACATATAAAAATTATACA [XGTACX_site3787] — higher, 6.93
- AAGTATTTTTTTACATGTACATATATATATATATAT [XGTACX_site5065] — higher, 9.81
- AAATAGATAAGTAGGACACACATATATATATATTAA [CACACA_site1862] — higher, 6.96
- CAAAAACATACCTACACACACAATATGTATTTATAA [CACACA_site5862] — higher, 6.97
- AAATGAATATTCATAGTGCAATATATAAATGAAAAT — higher, 7.94
- TTTAATTATTAGTGTGCACACAACTATGAGTTTTTA [CACACA_site8997] — higher, 8.35
- AATTACATTCAATTCTGTACTAATAGTAATTCAAAA [XGTACX_site7419] — higher, 7.12
- GAGAAAAATAAATACACACACATAAATAAATACATA [CACACA_site5102] — higher, 6.97
- TATGTATATTTTAATTGTACGTGTATGGTTGTAAAT [XGTACX_site8738] — higher, 7.36
- TTTTTTTTTTCATTAACACACATAAATATATATATA [CACACA_site5759] — higher, 8.41
- TGATTAATAATTTTCTTCATACATTAAACATCTTTT [TGCATGCA_negctrl_site342] — higher, 6.82
- CACTAATAGTGGATTACACACATATATCTGTATTTA [CACACA_site5403] — higher, 6.94
- TTAATGTTATATGTGTGTACATATAAGTTTAGTAAA [XGTACX_site4651] — higher, 7.09
- GACATAAAATTCAAAGTGCATAAATAAAATAAACCC — higher, 8.81
- TTTTTTTTTTTTTTCTGTACAAATTAAATCTACATA [XGTACX_site8285] — higher, 6.96
- ATATTTAAAAAATGATGTACAAAAATGTAGTCACAC [XGTACX_site6208] — higher, 7.24
- TATTTTAATGAATTCACACATATAATTTATTTTATA [CACACA_site4538] — higher, 6.84
- ATAGTATCTGGTAGCTGTACGAGTCGTAGAGTGTAA [XGTACX_site4936] — higher, 7.16
- ATATAAAACTAATTTCTTTTTCTCCTTTTATTTTGT [CACACA_negctrl_site1251] — higher, 6.99
- AATATATATTAATAAAGTACAGGAAATATTTTTACC [XGTACX_site7052] — higher, 7.33
- AAAATACATAGACACACACACACACGGATATAAATA [CACACA_site7643] — higher, 7.03
- ATATATATATATAAATGTACAGATATATTTTTTATT [XGTACX_site5445] — higher, 9.42
